The source gives no read counts; variants with many changes may rest on few reads.
B1: LINE1-full (parent)
chain: UACGUAGGUGGUUUUCCCCUGAUAGUGCUAAGGGGGCCUGGAAGUUUGGACUGGGCAGAGCUCAACACAGCGUGGCAAAGUGGCUGUGGCUAGACUGCCUCUCUGGAUUCCUCGUCACUCAGCAGGGCAUCUCUGAGAGAAAUGCC

Variants of: B1
Assay: self-cleavage, relative activity (ratio to wild type); higher = more cleavage; in vitro, sequencing; the parent is a self-cleaving ribozyme

Variant	self-cleavage
A57C U81A U115C	0
A57G A77U U91C	0.8
U52C A136G U143C	2.04
A57U A69U A142G	0.01
A57U A67G A121C	0
A57U C61U A124U U130A A136G	0.04
U52A A57G G72U G114A	0.48
G53U A65G C103U	0.05
A57G U85C U115A	0.13
G54U U102C U119A U134C	0.35
U52C C84U U115C U119A A142G	0.17
A57G C95U U104C	0.06
A57G U73C U91A A141G	1.53
U52C A65G A94U U96C	0.71
U52A U91C U130C	1.41
U52C C76G U81A U85A G135A	0.05
A57G A65U A69G	0.07
U52A U109A U115C A117G A141G	2.15
G54A A94G A141G	0.04
C51U U52C U62A U81C C99G A129G A136U	0
G53A A69G U130C A140G	0.23
A57G U62C U119C A140G	0
G53A U115C C118U	1.07
G53C G114A U134C A141G	1.73

Variant	self-cleavage
G58A U62C A69G	0.03
U52C U73C A77U A142G C145U	2.63
G55U U104A U143C	0.03
U52C U100A A124G	0.51
G53A A92C G106A	0.14
U52C A64U C84U	0.05
G55A A59G A92G	0
U52G U96A A140G	0.02
G58U A67U A136G	0
U52A A57G A117G U130A	1.38
U52A A57U G125A A142G	0.01
U52A U87G C98A U115C A140G	0.09
U52G A57G G75U A92G A140G	0.2
A57G A69G A77G G114A	0.81
A57C U85A A141G	0.04
G54A A77U U130A A140G	0.55
G54A U85A U112C	0.02
G58A G106A U115C A138G	0.07
A57G U81C G97U	0.02
G53A A64G U73A A142G	0.27
U52C A64C A69C	0
U52C G72A U102A A121U	1.02
U52C G74A A94G A129G A136G	0.15
A57G A124U A142U	1.05

Variant	self-cleavage
A57G U91C G114A	0.23
A57G U62C A69G	0
G53A U104G U108C	2.07
G54A A77G U100C	0.31
C51U G106A A142G	1.38
U52C A67G U102C	0
G54A U100C A117G U130C	0.2
G58A U102A A140U	0.06
U52C U85A A124U	0.15
G53U U81C U85C	0.25
U52C G58A A129G	0
U52A U85A U96C U115C	0.49
A57G U87A U134A	0.1
A57G U102C U130C U134C	0
G53A A67G A69C	0
A57G G105A A138G	1.15
U52C U119C A136G	1.84
A57U A64G U109A	0.17
U52G U62A G105A	0.03
A57U A77G U109A	0.12
A57U A77G U134A	0.06
A57G U100C A121U A142G	2.1
U52A U108C A121C	2.24
G54A U62A A94G	0.07

Variant	self-cleavage
A57G G72U U102A	1.03
C56G U87C U112C	0
A57G U73A U102C A141G	0.77
G58A A69U G106A	0.04
A57U A69U A78U	0.01
U52C A69G U119C	0
G55A U73G A141G	0.12
A57G U108C U115C	0.77
U52C G72A A92G A124G A136G	0.05
G54U U62C A65U A77U U87A U109C	0.02
G54U A121G U134A	0.52
A57U G106A A124U	0.13
U52A A57U U119C	0.09
A57G G60A A78G U119C	0.07
G55A U85A U87C	0.04
U52A U73C U143G	0.97
A57G A67G C110U	0.27
G54A A57C U73C	0.02
U52A A124U A136G	1.49
G53U U85C U100C U108C A129G	0.16
G54A A79G U115C A141G	0.24
U52A U85A U112A	0.06
G55A G60U U102A A117U U119C A124G	0.01
U52A U102C U115A A136G	0.79

Variant	self-cleavage
G54A A138G U143C	1.13
A57U A64G A107G	0.18
U52C C116U A140G	1.63
A57G A124G A136G	0.37
C56U U62A U132C	0.04
A57U U62C U130C	0
C56U C61U U115G A121G A141G	0.02
G58A A78G A142G	0
U52A C90U A124U	0.06
G54A A140G A141G	0.79
U52G G75A U104C U132C	1.58
G53A U73A U85C	0.07
U52C U132C A136G	0
A57G U87A U100C A129G	0
U52A G55A U91A	0.11
A57U U102C A129C	0.2
A57U U102C A129G	0.11
A57U U132C U134C	0.2
G54C A57G U96A U130C A142G	0
A57G U102A A140G	0.32
A57C U91C U134C	0.18
U52C U104C A107G	0
U52C A107G G126A A136G	1.53
U52A A65G U104A G125U	0.05

Variant	self-cleavage
A57U U73C A121G A138G	0.3
A57G A69G A94U U96A A136G	0
A57G A92U U102A	0.55
U52A U81C A117C	2.63
G53U G89A U102C	0.05
G54A U109C A142G	0.18
A57G A59G U96A U108G U143G	1.31
U52A U102A U108C	1.46
G53A A129G G144A	1.27
A57G C99U U134G A142G	0.18
A57G U81A U119C	2.09
U52A A69G A92G	0
A57G C76U A136G	2.29
C56U U62A U109A A136G	0.01
A57G C128U U132A	1.41
U52C G86U A129U	0.08
A57U U81A U85A	0.01
G55U A79U A117U	0.66
C51U U119C A140C	1.52
A57G A69G C76U U81A G89A U119C	0.03
U52C U119C A124U	0
G54A A94U A124G	0.11
A57U U104C A124G	0.08
U52A A65U G114A	0.05

Variant	self-cleavage
U52C A64G A124U	0.23
A57G C99G A129G	0
A57U A117G A141U	0.13
A57G C61U C103A	0.08
G53A A59G A65U U85C	0.04
A57G U73A U100C	2.93
U52A U62C U85G G89A	0.02
G54U A94G C120U	0.24
U52C A65G A78G A138G	0
A57G C103U C146U	0.65
U52C A59G G82A	0.1
A57G A59G A121C	0.24
A57G A124U U130C	0.94
U52A A92G A94U U102C A117U	0.14
G53U U62A A79G	0
U52C U85C A141G	0.07
A57G A78U U85C	0.11
U52C U87C G97A	0.08
A57U C71G G127U	0.03
A57G A65G C71A U73C A142G	0.25
A57G A77G U112C	0.61
U52A U96C U104C C128G	0.15
U52A A79G U130C	1.16

Reference: the RNAGym collection of RNA variant scans (doi:10.7554/elife.90254)
